The source of these data is the supplement of paper PMC11876631.

Positions count from the first letter of the chain named. Names and notes keep the numbering of the source. ± gives the standard deviation of the averaged measurements. Laboratory Escherichia coli strains with one amino-acid change in an essential protein, pooled on minimal glucose agar with carbenicillin or gentamicin at twice the control MIC (plus kanamycin and chloramphenicol for the plasmids), 48 h. Fold change of barcode share against drug-free plates; higher = less susceptible. Active = above 20 in both replicates (the paper's putatively resistant). '<' = one read or none on drug, '>' = one read or none on a drug-free plate. Shares are relative, so most strains fall below 1 when a few take over. Listed are strains with at least 15 reads on both drug-free plates, and hits; most hits rest on fewer reference reads. Replicate rank correlation about 0.5. Edits are read from barcodes.

Sequences and labels used below:
B1: dnaC V135D (protein)
chain: MKNVGDLMQRLQKMMPAHIKPAFKTGEELLAWQKEQGAIRSAALERENRAMKMQRTFNRSGIRPLHQNCSFENYRVECEGQMNALSKARQYVEEFDGNIASFIFSGKPGTGKNHLAAAICNELLLRGKSVLIITDADIMSAMKDTFRNSGTSEEQLLNDLSNVDLLVIDEIGVQTESKYEKVIINQIVDRRSSSKRPTGMLTNSNMEEMTKLLGERVMDRMRLGNSLWVIFNWDSYRSRVTGKEY
B2: dnaC L7Q (protein)
chain: B1 chain with L7Q, D135V
B3: dnaC L7W (protein)
chain: B1 chain with L7W, D135V
B4: dnaC L7D (protein)
chain: B1 chain with L7D, D135V
B5: dnaC L7P (protein)
chain: B1 chain with L7P, D135V
B6: adk L35Q (protein)
chain: MRIILLGAPGAGKGTQAQFIMEKYGIPQISTGDMQRAAVKSGSELGKQAKDIMDAGKLVTDELVIALVKERIAQEDCRNGFLLDGFPRTIPQADAMKEAGINVDYVLEFDVPDELIVDRIVGRRVHAPSGRVYHVKFNPPKVEGKDDVTGEELTTRKDDQEETVRKRLVEYHQMTAPLIGYYSKEAEAGNTKYAKVDGTKPVAEVRADLEKILG
B7: adk F109P (protein)
chain: B6 chain with Q35L, F109P
B8: adk F109Q (protein)
chain: B6 chain with Q35L, F109Q
B9: adk F109W (protein)
chain: B6 chain with Q35L, F109W
B10: adk F109A (protein)
chain: B6 chain with Q35L, F109A
B11: adk L35P (protein)
chain: B6 chain with Q35P
B12: dxr F135A (protein)
chain: MKQLTILGSTGSIGCSTLDVVRHNPEHFRVVALVAGKNVTRMVEQCLEFSPRYAVMDDEASAKLLKTMLQQQGSRTEVLSGQQAACDMAALEDVDQVMAAIVGAAGLLPTLAAIRAGKTILLANKESLVTCGRLAMDAVKQSKAQLLPVDSEHNAIFQSLPQPIQHNLGYADLEQNGVVSILLTGSGGPFRETPLRDLATMTPDQACRHPNWSMGRKISVDSATMMNKGLEYIEARWLFNASASQMEVLIHPQSVIHSMVRYQDGSVLAQLGEPDMRTPIAHTMAWPNRVNSGVKPLDFCKLSALTFAAPDYDRYPCLKLAMEAFEQGQAATTALNAANEITVAAFLAQQIRFTDIAALNLSVLEKMDMREPQCVDDVLSVDANAREVARKEVMRLAS
B13: dxr F135Q (protein)
chain: B12 chain with A135Q
B14: dxr F135W (protein)
chain: B12 chain with A135W
B15: eno L112A (protein)
chain: MSKIVKIIGREIIDSRGNPTVEAEVHLEGGFVGMAAAPSGASTGSREALELRDGDKSRFLGKGVTKAVAAVNGPIAQALIGKDAKDQAGIDKIMIDLDGTENKSKFGANAIAAVSLANAKAAAAAKGMPLYEHIAELNGTPGKYSMPVPMMNIINGGEHADNNVDIQEFMIQPVGAKTVKEAIRMGSEVFHHLAKVLKAKGMNTAVGDEGGYAPNLGSNAEALAVIAEAVKAAGYELGKDITLAMDCAASEFYKDGKYVLAGEGNKAFTSEEFTHFLEELTKQYPIVSIEDGLDESDWDGFAYQTKVLGDKIQLVGDDLFVTNTKILKEGIEKGIANSILIKFNQIGSLTETLAAIKMAKDAGYTAVISHRSGETEDATIADLAVGTAAGQIKTGSMSRSDRVAKYNQLIRIEEALGEKAPYNGRKEIKGQA
B16: eno L112D (protein)
chain: B15 chain with A112D

One data set addresses Escherichia coli (laboratory strain). Put plainly: barcode share on antibiotic plates over drug-free plates; higher = less susceptible. The note with it: antibiotic: carbenicillin; 2× MIC (3.1 µg/mL). On the procedure:
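A pool of E. coli strains, each edited to carry one amino-acid change in an essential protein, was grown for 48 h on minimal glucose agar with or without antibiotic; strain barcodes were sequenced; mean of two replicates.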
For B1, the “fold change of barcode share” value was found to be 0.136 ± 0.042.

Consider B2, for which the “fold change of barcode share” value was 0.254 ± 0.11.

Turning to B3, the “fold change of barcode share” value was found to be 0.595 ± 0.29.

For B4, the “fold change of barcode share” value stood at 0.275 ± 0.075.

Regarding B5, the “fold change of barcode share” value is 0.209 ± 0.082.

Take B6: the “fold change of barcode share” value was 0.493 ± 0.28.

Turning to B7, the “fold change of barcode share” value is 2.77 ± 2.2.

On to B8, for which the “fold change of barcode share” value was 0.245 ± 0.028.

Consider B9, for which the “fold change of barcode share” value turned out to be 3.77 ± 0.87.

With B10, the “fold change of barcode share” value is 0.333 ± 0.063.

In the case of B11, the “fold change of barcode share” value stood at 0.304 ± 0.19.

Regarding B12, the “fold change of barcode share” value was found to be 0.44 ± 0.22.

With B13, the “fold change of barcode share” value came out at 0.183 ± 0.005.

As to B14, the “fold change of barcode share” value worked out at 0.29 ± 0.12.

B15: the “fold change of barcode share” value was found to be 0.612 ± 0.22.

Take B16: the “fold change of barcode share” value is 0.593 ± 0.096.

Still in this data set, the particulars now being: antibiotic: gentamicin; 2× MIC (MIC 0.45 µg/mL).
For the protein B1, the “fold change of barcode share” value is less than 0.0119.

As to B2, the “fold change of barcode share” value was less than 0.00732.

Consider B3, for which the “fold change of barcode share” value is less than 0.0137.

For the protein B5, the “fold change of barcode share” value is less than 0.0156.

On to B6, for which the “fold change of barcode share” value was determined as 0.0105 ± 0.00098.

B8: the “fold change of barcode share” value was 0.00457 ± 0.0042.

On to B9, for which the “fold change of barcode share” value amounted to 0.0656 ± 0.072.

As for B10, the “fold change of barcode share” value turned out to be 0.00538 ± 0.006.

As for B11, the “fold change of barcode share” value was less than 0.00582.

In the case of B12, the “fold change of barcode share” value was less than 0.00594.

Turning to B13, the “fold change of barcode share” value was 0.122 ± 0.075.

With B14, the “fold change of barcode share” value was less than 0.00698.

As for B15, the “fold change of barcode share” value turned out to be 0.0187 ± 0.013.

Regarding B16, the “fold change of barcode share” value was found to be 0.112 ± 0.14.
